Experimental data: ChEMBL document CHEMBL4888484, “Replenishing the malaria drug discovery pipeline: Screening and hit evaluation of the MMV Hit Generation Library 1 (HGL1) against asexual blood stage Plasmodium falciparum ,using a nano luciferase reporter read-out” (2022)
The whole screen tested about 150,000 compounds, of which about 540 (0.36%) showed an effect of 50% or more. This is one part of the list.

System: Plasmodium falciparum
Assay: Primary screen in NF54 nanoGlo assay, in single point, at 2uM, 72h; a lower Z score goes with more inhibition
Format: functional, Erythrocyte
Settings: timepoint 72 hour

| SMILES | % Inhibition [%] | Z score |
| --- | --- | --- |
| COc1ccc(N2CCN(C(=O)CN3C(=O)C(C)(C)c4cc(C)ccc43)CC2)cc1 | -3 | 0.45 |
| C[C@@H](c1ccc(F)cc1F)N1CCC(c2nnc3n2CCC3)CC1 | -7 | 0.84 |
| Cc1cc(CC(=O)NC[C@H]2COC3(CCC(C)CC3)O2)n[nH]1 (stereo partly specified) | -4 | 0.6 |
| CCN1CCC2CCC(C1)N2CC(=O)Nc1ccc2c(c1)CCC2 (stereo unspecified) | 19 | -2.53 |
| Cc1ccc(S(=O)(=O)Nc2cccc(-c3ccc(N4CCCCC4)nn3)c2)cc1 | -18 | 2.4 |
| Cc1ccc([C@@H]2c3cccn3CCCN2Cc2cccs2)cc1C | 37 | -1.82 |
| O=C(C1CCCC1)N1CCCC2CCCC21 (stereo unspecified) | 8 | -1.19 |
| COc1ccc(CNCC(=O)Nc2ccc3c(c2)OCO3)cc1 | 9 | -1.71 |
| O=C(O)[C@@H]1Cc2ccccc2N1S(=O)(=O)c1ccc2ccccc2c1 | -6 | 1.17 |
| CN(Cc1ncc[nH]1)C(=O)C(F)(F)C(=O)N1CCOCC1 | -7 | 0.67 |
| COc1cccc([C@H]2CC(=O)Nc3c2cnn3C)c1 | 40 | -4.5 |
| Nc1nc(N2CCC[C@H]2c2ccccc2)nc(C(F)(F)F)n1 | -8 | 0.86 |
| Cc1noc(C)c1S(=O)(=O)N(C)Cc1ccccn1 | -6 | 0.82 |
| Cn1cccc1[C@@H](O)CCNS(=O)(=O)c1ccccc1 | -17 | 2.61 |
| Cc1ccc(CN(C)C(=O)NC[C@H]2CC[C@@H](CO)O2)o1 | -7 | 1.29 |
| O=C(Nc1cccc(Br)c1)N1Cc2cccn2-c2ccccc21 | -2 | 0.3 |
| O=C1CC(C(=O)N2CCCCCC2c2ccncc2)CN1CC1CC1 (stereo unspecified) | -5 | 0.95 |
| C[C@H](Nc1cccc(-c2ncn(C)n2)c1)C1CCC1 | 1 | -0.07 |
| CC(C)CC1(NC(=O)N[C@@H](C)[C@H](O)c2ccc(O)cc2)CC1 | 1 | -0.07 |
| C=CCOC1CCN(C(=O)CCc2cnn(C)c2)CC1 | -18 | 3.54 |
| Cc1nc(-c2nnn(-c3cccc(Cl)c3)c2C)sc1C(=O)NC1CCCC1 | -3 | 0.26 |
| Cc1nn(CC(=O)C(C)(C)C)c(C)c1Br | -13 | 2.11 |

| SMILES | % Inhibition [%] | Z score |
| --- | --- | --- |
| Cc1cc(O)n2nc(CC(=O)NCCCn3ccnc3C(C)C)nc2n1 | -14 | 2.16 |
| O=S(=O)(Nc1nc2ncccn2n1)c1cccs1 | 3 | -0.41 |
| O=C(CN1C(=O)CNC1=O)N1CCc2[nH]c3c(Cl)cccc3c2C1 | 0 | 0.07 |
| COC(=O)c1cc(-c2ccncc2)n(C)n1 | 2 | -0.45 |
| CC(=O)Nc1ccc(C(=O)N2CCC[C@H](Oc3ccncn3)C2)cc1 | 5 | -0.73 |
| C[C@@H](C(=O)N(C)Cc1ccc2c(c1)OCO2)n1cncn1 | 4 | -0.83 |
| O=C(C1CCCC1)N1C[C@@H]2CN(Cc3ccsc3)C[C@]2(C(=O)O)C1 | 2 | -0.42 |
| c1coc(-c2nc(CN3CCOc4ccccc43)cs2)c1 | -6 | 0.54 |
| Cc1cc(C(=O)NC[C@H](O)c2ccc(-c3cccs3)s2)no1 | 3 | -0.43 |
| COc1ccc(S(=O)(=O)N2CCC(C)C2)cc1C1(C)NC(=O)NC1=O (stereo unspecified) | -9 | 1.08 |
| CS(=O)(=O)NC[C@H]1CCOC2(CCN(C(=O)c3ccc4ccccc4n3)CC2)C1 | -8 | 1.43 |
| CCOc1ccc(C2(O)C(C)[N+]3=C(CCC3)N2c2ccc(OC)cc2)cc1 (stereo unspecified) | -15 | 1.25 |
| CCOc1ccc(CNC(=O)C2CCN(S(=O)(=O)N(CC(C)C)CC(C)C)CC2)cc1OC | -8 | 1.32 |
| OCc1ccnc(-c2cccc3cnccc23)c1 | -7 | 1.08 |
| C#CCN(CC#N)C(=O)Cc1ccccc1OC | 1 | -0.05 |
| C[C@@H](CCc1cccc(F)c1)C(=O)NCC(=O)O | -6 | 0.87 |
| CN1CCCN(CC(=O)NCc2ccccn2)c2cc(F)ccc21 | -6 | 0.5 |
| Nc1n[nH]c(-c2ccc(Br)o2)n1 | 4 | -0.5 |
| CC(C)c1cc(C(=O)N(C)CCc2cn[nH]c2)n(C)n1 | 1 | -0.17 |
| COc1cccc(Cn2c(=O)c3sccc3n(CC(=O)Nc3ccc(N(C)C)cc3)c2=O)c1 | 37 | -1.71 |
| CCCOc1cc(C)c2c(c1C)C[C@H]([C@H](C)C(=O)N1CCC(O)CC1)CC2 | 9 | -0.99 |
